Experiments:
[1] = tested on: USP9X; test: Western / HA-UbVS labeling of USP9X in intact cells or lysates; assay type: cell-based
[2] = biological target: T1, USP9X (Homo sapiens, UniProt Q93008); test: Ub-AMC assay on immunoprecipitated USP9x; assay type: biochemical
T1 construct: USP9x; immunoprecipitated from 500 μg Z138 cell lysate; endogenous in cells; host or cells: H929, WDT2, Z138, CML cell lines

[3] = tested on: ubiquitinated proteins; test: Ubiquitin immunoblot of cell extracts; assay type: cell-based
Experimental: Total cell lysates were prepared by boiling and sonicating cell pellets in 1× Laemmli reducing sample buffer. To prepare detergent soluble and insoluble fractions, cells were lysed in cold isotonic lysis buffer [10 mM Tris-HCl (pH 7.5), 0.5% Triton X-100, 150 mM NaCl along with Mini-Complete and PhosSTOP] for 15 min on ice and centrifuged 10 min at 20,000 RCF. The clarified supernatant was used as the detergent soluble cell fraction. The residual pellet was washed and extracted in Laemmli reducing sample buffer and briefly sonicated to derive the detergent insoluble fraction. Equal volumes of cellular lysate or equal protein amounts were electrophoresed on SDS-PAGE gels and transferred to nitrocellulose membranes (Whatmann, Dassel, Germany). Proteins were detected by immunoblotting.
Whole cell lysates were prepared by boiling and sonicating the cell pellets in 1× Laemmli reducing sample buffer. To prepare detergent soluble and insoluble fractions, cells were lysed in cold isotonic lysis buffer [10 mM Tris-HCl (pH 7.5), 0.5% Triton X-100, 150 mM NaCl along with Mini-Complete and PhosSTOP] for 15 min on ice and centrifuged 10 minutes at 20,000 RCF. The clarified supernatant was used as a source of the detergent soluble cell fraction. The detergent insoluble fraction was extracted by the sonication of residual pellet in equal volumes of boiling 1× Laemmli reducing sample buffer. […]

[4] = tested on: Bcr-Abl; test: Bcr-Abl immunoblot of cell fractions; assay type: cell-based; conditions: CML cells
[5] = tested on: Z138; test: MTT cell growth, survival and apoptosis; conditions: Homo sapiens, Z-138, read-out: apoptotic sensitivity IC50

T1 sequence (Q93008 whole entry): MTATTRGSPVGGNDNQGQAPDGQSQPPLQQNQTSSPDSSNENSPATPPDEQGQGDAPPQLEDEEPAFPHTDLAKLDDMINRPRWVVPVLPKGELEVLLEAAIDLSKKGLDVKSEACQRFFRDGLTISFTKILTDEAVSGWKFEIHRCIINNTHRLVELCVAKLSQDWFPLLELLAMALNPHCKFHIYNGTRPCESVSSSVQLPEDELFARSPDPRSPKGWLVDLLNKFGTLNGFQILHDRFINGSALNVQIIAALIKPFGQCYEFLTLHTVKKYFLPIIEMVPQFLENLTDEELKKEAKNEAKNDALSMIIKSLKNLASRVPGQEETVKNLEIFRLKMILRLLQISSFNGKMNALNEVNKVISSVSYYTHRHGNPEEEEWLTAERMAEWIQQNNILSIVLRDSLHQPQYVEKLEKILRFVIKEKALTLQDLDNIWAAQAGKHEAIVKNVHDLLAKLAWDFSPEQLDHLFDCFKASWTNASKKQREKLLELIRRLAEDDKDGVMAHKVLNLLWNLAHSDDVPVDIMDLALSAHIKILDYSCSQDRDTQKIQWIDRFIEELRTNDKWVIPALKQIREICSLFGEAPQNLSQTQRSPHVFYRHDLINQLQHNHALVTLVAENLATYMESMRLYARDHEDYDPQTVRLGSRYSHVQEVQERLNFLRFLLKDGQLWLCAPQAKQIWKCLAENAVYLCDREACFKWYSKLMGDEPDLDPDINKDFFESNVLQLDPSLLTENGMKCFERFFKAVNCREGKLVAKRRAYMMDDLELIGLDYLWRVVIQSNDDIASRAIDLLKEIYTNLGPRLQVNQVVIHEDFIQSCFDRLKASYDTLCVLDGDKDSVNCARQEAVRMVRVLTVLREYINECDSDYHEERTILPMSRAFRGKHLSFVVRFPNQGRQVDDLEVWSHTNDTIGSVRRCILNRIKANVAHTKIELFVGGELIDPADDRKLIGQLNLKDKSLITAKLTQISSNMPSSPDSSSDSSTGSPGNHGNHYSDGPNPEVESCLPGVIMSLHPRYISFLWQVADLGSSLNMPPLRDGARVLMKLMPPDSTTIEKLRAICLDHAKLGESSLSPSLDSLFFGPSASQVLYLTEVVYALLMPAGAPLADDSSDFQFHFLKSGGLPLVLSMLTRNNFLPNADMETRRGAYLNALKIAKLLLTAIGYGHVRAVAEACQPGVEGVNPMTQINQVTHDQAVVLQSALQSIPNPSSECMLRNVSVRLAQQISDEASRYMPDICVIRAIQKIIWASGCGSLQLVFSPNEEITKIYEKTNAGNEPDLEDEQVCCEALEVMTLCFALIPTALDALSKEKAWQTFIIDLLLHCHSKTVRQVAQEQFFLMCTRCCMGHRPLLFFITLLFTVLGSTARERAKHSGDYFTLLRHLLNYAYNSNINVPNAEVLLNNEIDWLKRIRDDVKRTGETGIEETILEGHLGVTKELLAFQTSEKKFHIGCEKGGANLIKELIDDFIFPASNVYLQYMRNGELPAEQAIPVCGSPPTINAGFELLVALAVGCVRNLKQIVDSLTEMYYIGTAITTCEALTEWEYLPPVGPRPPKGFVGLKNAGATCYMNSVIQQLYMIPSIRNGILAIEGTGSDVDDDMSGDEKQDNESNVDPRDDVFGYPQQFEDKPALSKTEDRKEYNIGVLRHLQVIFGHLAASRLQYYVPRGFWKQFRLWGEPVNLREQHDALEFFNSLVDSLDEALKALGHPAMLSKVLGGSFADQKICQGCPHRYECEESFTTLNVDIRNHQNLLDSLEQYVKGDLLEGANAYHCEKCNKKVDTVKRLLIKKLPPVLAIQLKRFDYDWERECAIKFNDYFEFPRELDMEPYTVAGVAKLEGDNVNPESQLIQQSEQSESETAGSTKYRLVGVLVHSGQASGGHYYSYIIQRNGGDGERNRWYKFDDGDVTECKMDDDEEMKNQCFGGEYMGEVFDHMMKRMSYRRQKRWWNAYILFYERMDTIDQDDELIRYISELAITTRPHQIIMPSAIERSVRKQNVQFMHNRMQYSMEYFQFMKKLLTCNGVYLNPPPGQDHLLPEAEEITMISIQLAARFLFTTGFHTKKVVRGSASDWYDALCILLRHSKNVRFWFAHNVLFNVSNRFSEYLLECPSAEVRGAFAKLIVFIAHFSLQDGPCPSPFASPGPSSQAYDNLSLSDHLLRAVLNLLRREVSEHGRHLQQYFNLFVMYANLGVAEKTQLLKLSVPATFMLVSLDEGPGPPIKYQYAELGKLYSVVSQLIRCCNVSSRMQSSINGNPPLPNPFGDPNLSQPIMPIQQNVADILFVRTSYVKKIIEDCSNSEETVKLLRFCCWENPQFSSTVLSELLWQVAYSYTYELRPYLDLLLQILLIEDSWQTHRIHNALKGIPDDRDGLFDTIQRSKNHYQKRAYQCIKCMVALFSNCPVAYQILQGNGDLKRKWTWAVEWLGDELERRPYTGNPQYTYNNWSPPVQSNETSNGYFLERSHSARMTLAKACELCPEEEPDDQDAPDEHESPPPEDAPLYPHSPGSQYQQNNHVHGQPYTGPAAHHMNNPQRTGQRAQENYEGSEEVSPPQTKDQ

Compound: CCC[C@H](NC(=O)/C(C#N)=C/c1cccc(Br)n1)c1ccccc1 [WP1130]
- Usp9x labeling by HA-UbVs ([1]; CML cell lysates incubated with compound for 1 h): completely blocked
- Usp9x activity (HA-UbVs labeling) ([1]; CML cells treated for 4 hours): effectively reduced
- HA-UbVS labeling of USP9x ([1]; Z138 treated cells): dose-dependent and time reduction in the labeling
- reduction of USP9x activity ([2]; 5 μM, USP9x immunoprecipitated from Z138 lysates): ≥ 80%
- reduction of Usp9x activity ([2]; Usp9x immunoprecipitated from CML cells): > 80%
- ubiquitinated protein levels ([3]; CML cells): rapid increase
- accumulation of ubiquitinated proteins ([3]; Z138 cells): marked and concentration-dependent accumulation
- Bcr-Abl protein levels ([4]; 5 μM, 2 hours): reduced
- Bcr-Abl trafficking from detergent soluble to insoluble cell fraction ([4]; WP1130 5 μM, bortezomib 50 nM): rapid and near complete trafficking
- IC50 [5]: ~1000 nM

— patent publication US8809377B2, “Deubiquitinase inhibitors and methods for use of the same” (The Regents of the University of Michigan, priority 2010, dated 2014)
